Read counts are not given, so values of variants with three or more changes are uncertain.

We go through 167 variants from the RNAGym collection of RNA variant scans (doi:10.7554/elife.90254).

The chains are these.
B1: LINE1-mini (parent)
chain: GGCAGAGCUCAACACAGCGUGGCAAAGUGGCUGUGGCUAGACUGCC

This data set covers variants of B1. Nature of the data set: self-cleavage, relative activity (ratio to wild type); higher = more cleavage; in vitro, sequencing; the parent is a self-cleaving ribozyme.
G17U C31U U34C C37A: the self-cleavage is 0.04.
On to G17C G19U A24U, for which the self-cleavage is 0.02.
Regarding G17C C23G A41C, the self-cleavage is 0.02.
As for G17C G36A A41U C45U, the self-cleavage is 0.09.
Turning to G17U G22C A24C U32C, the self-cleavage is 0.1.
Take G17C U34G C37A C42U: the self-cleavage came out at 0.01.
Under G17C U32C U38G stands 0.03; under C18A C37A C42A U43A, 0.02; under G17U A26G U38A C42U, 0.05.
In the case of C18A A24G U38C, the self-cleavage is 0.13.
As for G17U C23A G27A C31A A39G G40C, the self-cleavage is 0.02.
Then C18A A41U C42A, with 0.02; and G17U U28A C37A, with 0.04; and G17U G21U U34A, with 0.01.
Consider G17U C23G G40U, for which the self-cleavage is 0.03.
Consider C18A G19C G36U, for which the self-cleavage was determined as 0.06.
Consider G17U C31A G40A C45A, for which the self-cleavage came to 0.04.
Regarding G17U U20G A25G C37A, the self-cleavage turned out to be 0.02.
Under G17U G27U G33U stands 0.02.
Regarding G17U G27U G33A, the self-cleavage came out at 0.08.
Then C18A C31A G35A G44C, with 0.02; and G17U G21U G27U C37U, with 0.04; and C18A A25U C42U, with 0.02.
As to G17C C23G G35A, the self-cleavage was determined as 0.06.
Under G17C U34C C42A stands 0.04; under G17U U43A C46U, 0.03; under G17C C23A A24U, 2.67.
Consider G17U U28A G35A A41G, for which the self-cleavage came out at 0.05.
As to G17C G30A C31U G35A C45U, the self-cleavage was 0.03.
Consider C18A G19U G21A G33U, for which the self-cleavage was determined as 0.01.
Take G17C G27C U28G: the self-cleavage came to 0.55.
G17U U28A G36A C46A: the self-cleavage came to 0.03.
Then G17U A25C A41C, with 0.04; and G17U A25U A26C G29U, with 0.34; and G17C G27U G29A, with 0.41.
Take G17U A26C G30C C42U C45U: the self-cleavage was determined as 0.01.
In the case of G17U C18U G19A U34G G40C, the self-cleavage amounted to 0.01.
Regarding G17U U20A G21U A26C G27A, the self-cleavage was found to be 0.28.
Turning to G17U U20A U28C C45U, the self-cleavage amounted to 0.14.
With G17U A26U G30C C31U C37A, the self-cleavage worked out at 0.03.
In the case of G17U G30C C31U C37A U38C, the self-cleavage came out at 0.01.
Then G17U G22C G29C G30C, with 0.06; and C18A A25U U38G G44U, with 0.03; and G17C U34C C37U G44U C45A, with 0.06.
Consider G17C C31U A39U, for which the self-cleavage was found to be 0.02.
Under G17C G22C G33C stands 0.04; under C18A G19C U38C, 1.49; under C18A A24U G27C G35U, 0.02.
Under G17C G19A A41U stands 0.41.
For the variant G17C G21A A26C U38C, the self-cleavage is 0.29.
Take C18A A26C G30C: the self-cleavage stood at 0.65.
With G17C G22U G30U C37G, the self-cleavage amounted to 0.02.
As for C18A G21U U28G U32G, the self-cleavage is 0.
With G17C C37A G40U U43A, the self-cleavage amounted to 0.02.
As for G17U G27U G36U C45G, the self-cleavage stood at 0.01.
In the case of G17U A26U G29A C42A, the self-cleavage came to 0.05.
Regarding C18A C31U C37A, the self-cleavage was 0.02.
G17U A24G G30A: the self-cleavage came to 1.33.
In the case of C18A C23G A41U, the self-cleavage stood at 0.07.
As to C18A A24U U43A, the self-cleavage was found to be 0.03.
For the variant G17U G21U G29C A41C, the self-cleavage was 0.02.
Turning to C18A C23G U32G G35U U38A, the self-cleavage worked out at 0.18.
In the case of G17U C18A G22A C31G, the self-cleavage was found to be 0.4.
Then G17U U32G G35A, with 0.46; and C18A C31G G44A, with 0.02.
Regarding G17U U28C A41U, the self-cleavage is 0.22.
As for G17U C18U A26U G36C, the self-cleavage came out at 0.03.
Take G17U C23U U32C: the self-cleavage was found to be 0.04.
G17C G27U U28G U43A: the self-cleavage came to 0.02.
For G17C U28G G29C, the self-cleavage stood at 0.31.
Regarding G17U G21A A26G G30U U43A, the self-cleavage was 0.08.
Consider G17U A24U A26G, for which the self-cleavage was 0.03.
For C18A G21A A41G, the self-cleavage was found to be 0.25.
Under G17U A25U U38G stands 0.02; under G17C G35C A39U, 0; under G17U A24C A41C C42U, 0.01.
As to G17U G33A U38G C45U, the self-cleavage stood at 0.01.
Then G17U A26G G29U G36U G40C, with 0.06; and G17C C23A C31U C42U C46G, with 0.01.
As for G17C G19C U43C, the self-cleavage came to 0.02.
With G17U A25G G35A, the self-cleavage was found to be 0.02.
For G17U C31U G44A, the self-cleavage is 0.03.
As to G17U G21C G30A C37U, the self-cleavage came to 0.01.
On to G17U C18G A25G G44U, for which the self-cleavage was 0.03.
For the variant G17U G30C C31A, the self-cleavage is 0.35.
Consider G17U G29C U38A, for which the self-cleavage was found to be 0.22.
Take C18A C23A G36C G44U: the self-cleavage turned out to be 0.02.
As to G17C G21A G27A, the self-cleavage came out at 1.09.
As to G17U G21U A26G G35C, the self-cleavage amounted to 0.02.
For C18A G21A G22C C23A G27A U28C, the self-cleavage turned out to be 0.25.
Consider G17U U20G A24U U28C C37A C45G, for which the self-cleavage is 0.02.
Turning to G17U A26G G40A, the self-cleavage was found to be 0.03.
Consider G17C G19A C37G, for which the self-cleavage is 0.03.
Consider C18A G22U C31G G36A, for which the self-cleavage was 0.09.
Take G17U G21U A26C: the self-cleavage worked out at 0.1.
For G17U A24U C45A, the self-cleavage turned out to be 0.04.
As for C18A C23G G36A, the self-cleavage was found to be 0.24.
On to G17C G21A G36A C42G, for which the self-cleavage stood at 0.07.
As for G17C U28C U34C, the self-cleavage was 0.02.
With G17U U38G C46U, the self-cleavage is 0.01.
As for C18A G22C U32C G33C U34C, the self-cleavage was 0.03.
Under G17U G35C C42G C46A stands 0.01; under G17U G27A C45U, 0.23.
Consider G17C G27C A39U, for which the self-cleavage was determined as 0.51.
Then C18A A24G A25C C42U, with 0.04; and G17U U20C A26G G35U C45U, with 0.02; and G17C C18U G19C, with 0.36.
In the case of G17U C18A G22U G30U, the self-cleavage was 0.06.
For the variant C18A C23A G44C C45U, the self-cleavage stood at 0.08.
Take C18A A24C G27C: the self-cleavage is 0.05.
For C18A G22A G35A, the self-cleavage turned out to be 0.05.
For C18A G19C G30C, the self-cleavage turned out to be 1.15.
Consider G17C U20G A26U, for which the self-cleavage is 1.46.
As to G17C U20C C23U G33C, the self-cleavage is 0.01.
Regarding G17C G22C C42U C46U, the self-cleavage came out at 0.02.
Regarding G17U G29A G40A, the self-cleavage is 0.05.
Consider G17U G21A A26C G27C C46U, for which the self-cleavage worked out at 0.05.
On to G17U U20C G22U A26G, for which the self-cleavage is 0.64.
G17C G29U U32A: the self-cleavage is 0.13.
As to G17C U43C C45U, the self-cleavage was 0.
On to G17U G35C G44U, for which the self-cleavage is 0.07.
On to C18A A25G G30A, for which the self-cleavage is 0.09.
On to G17U U28C U34A C45U, for which the self-cleavage amounted to 0.03.
On to G17U U38A U43G, for which the self-cleavage was 0.
Under G17C G21U C31U G33C C37U stands 0.03; under G17U U20A C23U G30U G36C, 0.07.
For the variant C18A A24C G33A, the self-cleavage is 0.04.
For G17U C37A C46A, the self-cleavage turned out to be 0.03.
As to G17U A41G G44C, the self-cleavage was determined as 0.02.
Then G17U C18A G22U G29A U34A, with 0.19.
In the case of G17C C37A C42G, the self-cleavage was found to be 0.02.
Take G17C G21C G22U C37G C46G: the self-cleavage stood at 0.06.
On to C18A A26C C37A U38G A41C C42A G44C, for which the self-cleavage was found to be 0.02.
Take G17U G22A U38A: the self-cleavage turned out to be 0.25.
For G17U A26G C45U, the self-cleavage is 0.06.
On to C18A G22C G44C, for which the self-cleavage amounted to 0.13.
Consider G17C G29U C31G U34A C46U, for which the self-cleavage was determined as 0.14.
As for G17C G29A G36U, the self-cleavage came to 0.05.
In the case of G17C G29A G36C, the self-cleavage came to 0.03.
On to G17C G19A A24C, for which the self-cleavage is 0.03.
Regarding G17U A26G G33U U38A, the self-cleavage was 0.
On to G17U C18U G19U G27A G36U, for which the self-cleavage came to 0.01.
On to G17C G35U C45A, for which the self-cleavage was 0.18.
Turning to C18A G19A C23A, the self-cleavage was determined as 1.26.
On to C18A G21C G36C G44C, for which the self-cleavage was 0.05.
Then G17C G22U U28C U43C, with 0.06.
As to C18A A25G G30A C46A, the self-cleavage came out at 0.15.
Turning to C18A A24U G33U G36C, the self-cleavage is 0.02.
Take G17U G19U G27U: the self-cleavage is 0.04.
C18A A24U U28C U38A G40A C46G: the self-cleavage worked out at 0.01.
Then G17U A25C U34A U38A A41U, with 0.02.
Regarding G17C G33A U34G, the self-cleavage amounted to 0.01.
With G17U G21A C46U, the self-cleavage was determined as 0.2.
Take G17C C18U A25U C42U: the self-cleavage is 0.02.
For G17C U20G C42A C46A, the self-cleavage came to 0.02.
As to G17U C31A G40A, the self-cleavage was 0.07.
Consider G17U G22U C23A G36U C42A C46A, for which the self-cleavage was 0.01.
Then C18A C23G G27C G30U, with 0.95.
Under G17U C23U C37A C45A stands 0; under G17C U38C A41U, 0.09; under G17U U34C C37U, 0.07.
C18A A24C C31U: the self-cleavage was 0.04.
Consider G17U G21A A24G U28G U38G, for which the self-cleavage turned out to be 0.01.
On to G17U G29C U34G C37A A41G U43A C45U, for which the self-cleavage was 0.01.
C18A C23A C31A G36A C45U: the self-cleavage worked out at 0.06.
In the case of G17C C23A A24G G35C A39C G40C, the self-cleavage is 0.02.
In the case of G17C G35A A39C, the self-cleavage stood at 0.03.
